# Results taken from PubChem BioAssay AID485281 (National Center for Advancing Translational Sciences (NCATS), 2010).
# Where “and” joins values, the source holds several entries; their conditions need not be identical. Equal values may be shown once. Among all 350,000 compounds or so, about 260 (0.074%) were called active. Inconclusive means that the source gave no clear call. Such entries were picked first, then a sample of the others. Calls come from the whole dose curve; as a rule, active = well fitted inhibition curve with a large enough effect; inconclusive = small, poorly fitted or top-dose-only effect; inactive = no such curve, though single readings can be large or run the other way. Potencies of inconclusive entries are doubtful fits and often do not repeat.
# Molecular target: Ferritin light chain (Equus caballus) (UniProt P02791)
# Chain of UniProt P02791 (P02791 whole entry, looked up): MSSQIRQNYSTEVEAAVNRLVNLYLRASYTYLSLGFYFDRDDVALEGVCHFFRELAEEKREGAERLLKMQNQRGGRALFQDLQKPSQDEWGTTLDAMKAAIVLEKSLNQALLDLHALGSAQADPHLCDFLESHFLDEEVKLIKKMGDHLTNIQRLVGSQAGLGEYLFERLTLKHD
# Assay: qHTS Assay for Identification of Novel General Anesthetics; note: nearly all actives have a fitted effect of over 20% in size
# Conditions: apoferritin/1-aminoanthracene competitive binding, fluorescence; series mostly up to 77.5 µM
# How it was run: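 Horse-spleen apoferritin (10 uM) in 50% saturated 1-aminoanthracene in PBS was incubated 10 min at room temperature with compound. Fluorescence (ex 380, em 535 nm) was normalized to free and bound 1-AMA, with concentration-response fitted by a four-parameter Hill equation.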
# Potency is the fitted concentration of half-maximal effect; tags give direction and shape of the fitted curve.
row,Compound,Potency
1,Cc1ccc(C(=O)Nc2ccc(Br)cc2)cc1S(=O)(=O)NCc1ccccc1,inactive
2,CCOc1cc(/C=N/N=C(N)N)ccc1OCc1ccc(Cl)cc1,"inconclusive: 44.7 µM [inhibitor, single point]"
3,COc1ccccc1Cn1c(SCC(=O)C(C)(C)C)nc2ccccc2c1=O,inactive
4,CCCCNC(=O)CC1N=C2c3ccccc3N=C(SCC(=O)Nc3ccc(OC)cc3)N2C1=O (stereo not drawn),"inconclusive: 15.8 µM [inhibitor, partial curve]"
5,Clc1cccc(CSc2ccc(-c3cccs3)nn2)c1,"inconclusive: 20 µM [inhibitor, partial curve]"
6,CC(C)CCSc1nnc(N)s1,"inconclusive: 50.1 µM [inhibitor, single point]"
7,N#Cc1ccc(CSc2nnc(-c3ccc(Br)cc3)o2)cc1,inactive
8,O=[N+]([O-])c1ccc(S(=O)(=O)NCCN2CCOCC2)cc1,inactive
9,Cc1nn(-c2ccccc2)c2nc(N)c(C#N)c(-c3ccc(F)cc3)c12,"inconclusive: 5.62 µM [inhibitor, full curve, poor fit]"
10,C=CC[n+]1c(C)csc1Nc1ccc(C)cc1,"inconclusive: 17.8 µM [inhibitor, partial curve]"
11,CC(C)(C)OC(=O)[C@H](Cc1ccccc1)NC(=O)c1nc[nH]c1C(=O)NCc1ccccc1,"inconclusive: 3.16 µM [inhibitor, full curve, poor fit]"
12,CC(=O)Nc1ccc(-c2c(C)cc3oc(=O)cc(-c4ccccc4)c3c2C)cc1,"inconclusive: 39.8 µM [inhibitor, partial curve]"
13,O=C(Nc1cccc([N+](=O)[O-])c1)Nc1cnccn1,inactive
14,CCOc1cc(CNCCO)cc(Br)c1OCc1ccc(Cl)cc1Cl,"inconclusive: 28.2 µM [inhibitor, partial curve]"
15,Cc1cccc(OCC(O)CN2CCc3ccccc3C2)c1 (stereo not drawn),"inconclusive: 25.1 µM [inhibitor, partial curve]"
16,Nc1nc(CSc2ccc(Cl)cc2)nc(N2CCCCC2)n1,"inconclusive: 44.7 µM [inhibitor, single point]"
17,CCCCn1nnc(NC(=O)c2ccc(-c3cccc([N+](=O)[O-])c3)o2)n1,"inconclusive: 31.6 µM [inhibitor, partial curve]"
18,O=C(CCc1nnc(-c2ccc(-c3ccccc3)cc2)o1)N1CCCCC1,inactive
19,O=C1c2ccccc2C(=O)N1CC1c2ccccc2CCN1C(=O)C1CCCCC1 (stereo not drawn),"inconclusive: 10 µM [inhibitor, partial curve]"
20,COc1cccc(N2C(=O)C3CC=C(Cl)CC3C2=O)c1 (stereo not drawn),"inconclusive: 25.1 µM [inhibitor, partial curve]"
21,O=C(NCc1ccc(F)cc1)c1cnn2ccccc12,"inconclusive: 50.1 µM [inhibitor, single point]"
22,CC(C)Cc1ccc(C(C)C(=O)Nc2cccnc2)cc1 (stereo not drawn),"inconclusive: 31.6 µM [inhibitor, partial curve]"
23,COc1ccc(OCCC(=O)OCC(=O)NCCC2=CCCCC2)cc1,"inconclusive: 22.4 µM [inhibitor, partial curve]"

row,Compound,Potency
1,CS(=O)(=O)Nc1ccc(C(=O)NCCC2=CCCCC2)cc1,"inconclusive: 20 µM [inhibitor, partial curve]"
2,O=C(CSc1nc2ccccc2c(=O)n1Cc1ccc(Cl)cc1)NCc1cccs1,inactive
3,CCOc1ccc(-n2c(SCc3cc(=O)oc4cc(C)ccc34)nnc2-c2cccnc2)cc1,"inconclusive: 56.2 µM [inhibitor, single point]"
4,Cc1cc(C)cc(NC(=O)CCCn2c(=O)c3cccn3c3ccccc32)c1,"inconclusive: 22.4 µM [inhibitor, partial curve]"
5,CCCCC#Cc1cncc(C(=O)N/N=C/c2cccc(OC)c2)c1,"inconclusive: 50.1 µM [inhibitor, single point]"
6,O=C(/C=C/c1ccc(Br)cc1)c1ccc(NC2=NCCCS2)cc1,inactive
7,O=C1c2ccccc2-c2onc3ccc(NCc4ccco4)c1c23,"inconclusive: 35.5 µM [inhibitor, partial curve]"
8,COc1ccc(C2C(C(=O)OCC(=O)Nc3ccc(C)cc3)CCC(=O)N2c2ccc(OC)cc2)cc1 (stereo not drawn),"inconclusive: 14.1 µM [inhibitor, partial curve]"
9,O=C(NC1CCCCCCC1)c1ccc(Br)o1,"inconclusive: 11.2 µM [inhibitor, partial curve]"
10,COc1cccc(C(c2sc3nc(-c4ccco4)nn3c2O)N2CCN(c3ccccc3F)CC2)c1 (stereo not drawn),"inconclusive: 8.91 µM [inhibitor, partial curve, poor fit]"
11,O=C(Cc1ccccc1)Nc1nnc(-c2cccs2)s1,inactive
12,O=C(CNC1CCCC1)Nc1ccc(N2CCCCCC2)cc1,"inconclusive: 12.6 µM [inhibitor, partial curve]"
13,O=Nc1c(O)n(Cc2ccc(Cl)cc2)c2ccccc12,"inconclusive: 25.1 µM [inhibitor, partial curve]"
14,CN1CCN(C(c2cccnc2)c2ccc3cccnc3c2O)CC1 (stereo not drawn),"inconclusive: 28.2 µM [inhibitor, partial curve]"
15,CC[n+]1c(C)sc2sc3ccccc3c21,"inconclusive: 44.7 µM [inhibitor, single point]"
16,CC(=O)NCCC(=O)Nc1cc(S(=O)(=O)N2CCCCC2)ccc1Oc1ccccc1,inactive
17,CC1(C)CC(=O)c2cc(-c3nc(-c4ccc(Cl)cc4)cs3)c(=O)n(-c3cccc(F)c3)c2C1,inactive
18,COc1ccc(NC(=O)/C(=C\c2cc(OC)c(OC)cc2[N+](=O)[O-])NC(=O)c2ccccc2)cc1,"inconclusive: 22.4 µM [inhibitor, partial curve]"
19,COc1ccc(CCNC(=O)CC2SC(=NCc3ccccc3OC)NC2=O)cc1 (stereo not drawn),"inconclusive: 31.6 µM [inhibitor, partial curve]"
20,Cc1cc(C)cc(NS(=O)(=O)c2ccc(NC(=S)NC(=O)c3cccs3)cc2)c1,"inconclusive: 22.4 µM [inhibitor, partial curve]"
21,Cc1csc2c(N3CCN(C(=O)Nc4ccc(OC(F)(F)F)cc4)CC3)ncnc12,"inconclusive: 28.2 µM [inhibitor, partial curve]"
22,O=C(NC(=S)NCc1ccco1)c1cccc(Cl)c1,"inconclusive: 50.1 µM [inhibitor, single point]"
23,O=[N+]([O-])c1cccc(N2Cc3ccccc3C2)c1,"inconclusive: 17.8 µM [inhibitor, partial curve]"

row,Compound,Potency
1,CCn1c(=O)c(=O)[nH]c2cc(C(=O)NC3CCCc4ccccc43)ccc21 (stereo not drawn),inactive
2,CCOc1ccc(NS(=O)(=O)c2ccc3[nH]cc(C(=O)N4CCCCCC4)c(=O)c3c2)cc1,"inconclusive: 14.1 µM [inhibitor, partial curve]"
3,O=C(OCC(=O)N1CCN(C(=O)c2ccco2)CC1)c1cc(-c2ccc(F)cc2)nc2ccccc12,"inconclusive: 44.7 µM [inhibitor, single point]"
4,CCCCCCCCn1cnc2c(N)c(C)c(C)cc21,"inconclusive: 31.6 µM [inhibitor, partial curve]"
5,COc1ccc2nc(NCc3cccnc3)sc2c1,"inconclusive: 28.2 µM [inhibitor, single point]"
6,OC(CN1CCN(c2ccccc2)CC1)c1c[nH]c2ccccc12 (stereo not drawn),"inconclusive: 28.2 µM [inhibitor, single point]"
7,Cc1ccccc1C(=O)c1cccn1CC(=O)NCCC1=CCCCC1,"inconclusive: 17.8 µM [inhibitor, partial curve]"
8,O=C(c1ccco1)N1CCN(CC(O)COc2ccc3oc4ccccc4c3c2)CC1 (stereo not drawn),"inconclusive: 20 µM [inhibitor, partial curve]"
9,O=C(CSC(=S)N1CCCCC1)c1ccccc1,"inconclusive: 12.6 µM [inhibitor, partial curve]"
10,COc1ccc(CCNC(=O)C2CC(c3cc(C(F)(F)F)cc(C(F)(F)F)c3)=NO2)cc1 (stereo not drawn),"inconclusive: 5.62 µM [inhibitor, full curve]"
11,COc1cccc(NC(=O)c2ccc3[nH]c(C)cc(=O)c3c2)c1,"inconclusive: 39.8 µM [inhibitor, partial curve]"
12,CCCc1cc(=O)oc2cc(C)c3c(C(C)(C)C)coc3c12,inactive
13,O=C(Nc1cccc(F)c1)NC1CCN(Cc2ccccc2)CC1,inactive
14,Cc1ccc(C)c(CSc2nnc([C@@H](N)C(C)C)o2)c1,"inconclusive: 28.2 µM [inhibitor, partial curve]"
15,COC(=O)c1ccc(Cn2nc(-c3ccc(C)cc3)ccc2=O)cc1,"inactive and inconclusive: 5.01 µM [inhibitor, single point]"
16,COc1cccc(CCc2nnc(N)s2)c1,"inconclusive: 44.7 µM [inhibitor, single point]"
17,O=C(Nc1cccc2ncccc12)c1ccc(-c2ccc(Br)cc2)o1,"inconclusive: 20 µM [inhibitor, partial curve]"
18,Cc1ccc(CCNC(=O)c2cc(C)nc3c2c(C)nn3-c2ccc(C)cc2)cc1,inactive
19,CCOC(=O)c1[nH]c2cc3c(cc2c1NC(=O)CN1CCCC1)OCO3,inactive
20,CCCCCOC(=O)C1=C(C)Nc2nnnn2C1c1ccc(OC)c(OC)c1OC (stereo not drawn),"inconclusive: 31.6 µM [inhibitor, partial curve]"
21,Cc1ccc(N/C(N)=N/c2nc(C)cc(N3CCCCC3)n2)c(C)c1,inactive
22,CCc1ccc(-n2c(SCc3ccccc3C)nc3[nH]ncc3c2=O)cc1,"inconclusive: 11.2 µM [inhibitor, full curve]"
